First the molecules themselves.
B1: GPR68, Q15743 (parent)
chain: MGNITADNSSMSCTIDHTIHQTLAPVVYVTVLVVGFPANCLSLYFGYLQIKARNELGVYLCNLTVADLFYICSLPFWLQYVLQHDNWSHGDLSCQVCGILLYENIYISVGFLCCISVDRYLAVAHPFRFHQFRTLKAAVGVSVVIWAKELLTSIYFLMHEEVIEDENQHRVCFEHYPIQAWQRAINYYRFLVGFLFPICLLLASYQGILRAVRRSHGTQKSRKDQIQRLVLSTVVIFLACFLPYHVLLLVRSVWEASCDFAKGVFNAYHFSLLLTSFNCVADPVLYCFVSETTHRDLARLRGACLAFLTCSRTGRAREAYPLGAPEASGKSGAQGEEPELLTKLHPAFQTPNSPGSGGFPTGRLA

Scores with a large standard error are left out. Two further conditions of the source, in which the scores hardly spread, are not listed. Names with del lack the residues named; names with ins carry added residues between the positions named. For some of these results: The data file names ogerin without a concentration.

Variants of B1 are the subject of data set [1]. In words: cAMP reporter score (Enrich2 score, wild type = 0); higher = more signal; HEK293T, FACS bins.
The variants in data set [2] derive from B1. Nature of the data set: surface expression score (Enrich2 score, wild type = 0); higher = more signal; HEK293T, FACS bins.

Q219K: the cAMP reporter score worked out at 1.13 in data set [1] (pH 5.5); 0.726 in data set [1] (pH 6); 1.31 in data set [1] (pH 6, modulator: ogerin). In addition, the surface expression score in data set [2] is 0.865.

Turning to Q219P, the cAMP reporter score in data set [1] (pH 5.5) is 0.945; in data set [1] (pH 6, modulator: ogerin) it was 0.912; in data set [1] (pH 6.5, modulator: ogerin) it was 2.71. In addition, the surface expression score in data set [2] turned out to be 0.415.

Q219T: the cAMP reporter score in data set [1] (pH 5.5) was 0.286; in data set [1] (pH 6), 2.36; in data set [1] (pH 6, modulator: ogerin), 0.937; in data set [1] (pH 6.5, modulator: ogerin), 2.02. The surface expression score in data set [2] was found to be 0.701.

Take Q219R: the cAMP reporter score in data set [1] (pH 5.5) was -0.312; in data set [1] (pH 6), -0.04; in data set [1] (pH 6, modulator: ogerin), -0.508; in data set [1] (pH 6.5, modulator: ogerin) it was -0.179. Further, the surface expression score in data set [2] was -0.27.

As for Q219A, the cAMP reporter score in data set [1] (pH 5.5) was -0.276; in data set [1] (pH 6), -0.258; in data set [1] (pH 6, modulator: ogerin), 0.41; in data set [1] (pH 6.5, modulator: ogerin), -0.602. In addition, the surface expression score in data set [2] is -0.353.

Regarding Q219C, the cAMP reporter score was found to be 0.606 in data set [1] (pH 5.5); 0.397 in data set [1] (pH 6, modulator: ogerin); 1.23 in data set [1] (pH 6.5, modulator: ogerin). Moreover, the surface expression score in data set [2] is -0.027.

Consider Q219N, for which the cAMP reporter score in data set [1] (pH 5.5) worked out at 0.721; in data set [1] (pH 6), 0.381; in data set [1] (pH 6, modulator: ogerin) it was 0.647; in data set [1] (pH 6.5, modulator: ogerin) it was 0.385. In addition, the surface expression score in data set [2] is 0.712.

For the variant Q219S, the cAMP reporter score in data set [1] (pH 5.5) is 1.13; in data set [1] (pH 6), 2.87; in data set [1] (pH 6, modulator: ogerin) it was 1.76; in data set [1] (pH 6.5, modulator: ogerin) it was 2.13. The surface expression score in data set [2] was found to be 0.987.

For Q219M, the cAMP reporter score in data set [1] (pH 5.5) is -0.241; in data set [1] (pH 6) it was -0.129; in data set [1] (pH 6, modulator: ogerin) it was 0.233; in data set [1] (pH 6.5, modulator: ogerin), -0.352. The surface expression score in data set [2] was -0.091.

For Q219H, the cAMP reporter score in data set [1] (pH 5.5) is -0.545; in data set [1] (pH 6), 0.359; in data set [1] (pH 6, modulator: ogerin), -0.751; in data set [1] (pH 6.5, modulator: ogerin), -0.078. The surface expression score in data set [2] was -0.349.

As to Q219E, the cAMP reporter score was determined as 1.12 in data set [1] (pH 5.5); 1.41 in data set [1] (pH 6); 1.52 in data set [1] (pH 6, modulator: ogerin); 2.22 in data set [1] (pH 6.5, modulator: ogerin). Besides, the surface expression score in data set [2] was 2.28.

Q219I: the cAMP reporter score is 0.869 in data set [1] (pH 5.5); -0.734 in data set [1] (pH 6); 0.501 in data set [1] (pH 6, modulator: ogerin); 0.338 in data set [1] (pH 6.5, modulator: ogerin). In addition, the surface expression score in data set [2] is -0.528.

Regarding S215_H216insGS, the cAMP reporter score was -0.718 in data set [1] (pH 5.5); -1.08 in data set [1] (pH 6); -1.28 in data set [1] (pH 6, modulator: ogerin); -1.01 in data set [1] (pH 6.5, modulator: ogerin). For the same variant, the surface expression score in data set [2] turned out to be 0.242.

As for K220_S221insGSG, the cAMP reporter score was -0.854 in data set [1] (pH 5.5); -0.936 in data set [1] (pH 6); -0.956 in data set [1] (pH 6, modulator: ogerin); -0.818 in data set [1] (pH 6.5, modulator: ogerin). Also, the surface expression score in data set [2] is 0.42.

D224_Q225insGS: the cAMP reporter score was -1.36 in data set [1] (pH 5.5); -1.56 in data set [1] (pH 6); -1.69 in data set [1] (pH 6, modulator: ogerin); -1.3 in data set [1] (pH 6.5, modulator: ogerin). In addition, the surface expression score in data set [2] was 0.155.

Turning to D224del, the cAMP reporter score in data set [1] (pH 5.5) is -0.382; in data set [1] (pH 6, modulator: ogerin), -0.648.

As for K223_D224insGS, the cAMP reporter score was -0.288 in data set [1] (pH 5.5) and -1.91 in data set [1] (pH 6, modulator: ogerin). Besides, the surface expression score in data set [2] is 2.4.

In the case of S215_G217del, the cAMP reporter score in data set [1] (pH 5.5) is -1.4; in data set [1] (pH 6), -0.608; in data set [1] (pH 6, modulator: ogerin), -1.36; in data set [1] (pH 6.5, modulator: ogerin), -1.36. Moreover, in data set [2], the surface expression score was -0.502.

On to K220_S221insG, for which the cAMP reporter score in data set [1] (pH 5.5) was -0.239; in data set [1] (pH 6), -0.903; in data set [1] (pH 6, modulator: ogerin) it was -1.75; in data set [1] (pH 6.5, modulator: ogerin) it was -0.313. Moreover, in data set [2], the surface expression score is -0.09.

Regarding K220_R222del, the cAMP reporter score was -1.09 in data set [1] (pH 5.5); -0.809 in data set [1] (pH 6); -1.12 in data set [1] (pH 6, modulator: ogerin); -1.19 in data set [1] (pH 6.5, modulator: ogerin). In addition, the surface expression score in data set [2] was -0.051.

On to G217_T218insGS, for which the cAMP reporter score was -2.34 in data set [1] (pH 5.5); -1.26 in data set [1] (pH 6); -2.52 in data set [1] (pH 6, modulator: ogerin); -1.32 in data set [1] (pH 6.5, modulator: ogerin). Besides, the surface expression score in data set [2] was 1.02.

As for Q219_S221del, the cAMP reporter score was -1.17 in data set [1] (pH 5.5); -1.06 in data set [1] (pH 6); -1.43 in data set [1] (pH 6, modulator: ogerin); -0.936 in data set [1] (pH 6.5, modulator: ogerin). Besides, in data set [2], the surface expression score was 0.991.

Turning to G217_T218insG, the cAMP reporter score was -1.29 in data set [1] (pH 5.5); -0.033 in data set [1] (pH 6); -0.425 in data set [1] (pH 6.5, modulator: ogerin). Further, the surface expression score in data set [2] is 0.556.

With H216Q, the cAMP reporter score in data set [1] (pH 5.5) was 0.877; in data set [1] (pH 6), 0.315; in data set [1] (pH 6, modulator: ogerin), 0.725; in data set [1] (pH 6.5, modulator: ogerin), -0.5. Besides, the surface expression score in data set [2] stood at 1.28.

For H216T, the cAMP reporter score in data set [1] (pH 5.5) is 1.02; in data set [1] (pH 6), 2.02; in data set [1] (pH 6, modulator: ogerin), 0.744; in data set [1] (pH 6.5, modulator: ogerin) it was 0.836. Also, the surface expression score in data set [2] was found to be 1.25.

H216D: the cAMP reporter score in data set [1] (pH 5.5) was 1.46; in data set [1] (pH 6, modulator: ogerin), -0.64; in data set [1] (pH 6.5, modulator: ogerin) it was -0.177.

In the case of H216C, the cAMP reporter score in data set [1] (pH 5.5) was 0.217; in data set [1] (pH 6) it was -0.828; in data set [1] (pH 6, modulator: ogerin), -0.016; in data set [1] (pH 6.5, modulator: ogerin), -0.805. In data set [2], the surface expression score was 1.98.

For H216L, the cAMP reporter score is -0.631 in data set [1] (pH 5.5) and 0.898 in data set [1] (pH 6).

Consider H216V, for which the cAMP reporter score in data set [1] (pH 5.5) was -0.351; in data set [1] (pH 6), 0.664; in data set [1] (pH 6, modulator: ogerin) it was -0.03.

As for H216A, the cAMP reporter score in data set [1] (pH 5.5) was -0.153; in data set [1] (pH 6), -0.221; in data set [1] (pH 6, modulator: ogerin), -0.257; in data set [1] (pH 6.5, modulator: ogerin), 0.382. Also, the surface expression score in data set [2] is 0.747.

For H216W, the cAMP reporter score in data set [1] (pH 5.5) was -0.15; in data set [1] (pH 6), -0.972; in data set [1] (pH 6, modulator: ogerin), -0.764; in data set [1] (pH 6.5, modulator: ogerin), -0.674. Moreover, the surface expression score in data set [2] was found to be 0.239.

As to H216K, the cAMP reporter score turned out to be 0.263 in data set [1] (pH 5.5); 0.587 in data set [1] (pH 6, modulator: ogerin); 0.104 in data set [1] (pH 6.5, modulator: ogerin). The surface expression score in data set [2] was determined as 1.9.

On to H216I, for which the cAMP reporter score amounted to 0.931 in data set [1] (pH 5.5); 1.52 in data set [1] (pH 6); 0.653 in data set [1] (pH 6, modulator: ogerin); 0.313 in data set [1] (pH 6.5, modulator: ogerin). Also, the surface expression score in data set [2] is -0.713.

For the origin of these results see the GPR68 mutational scans of Howard et al. (2025).
